# Some of the results follow.
# B1: PhoQ; a variant is named by its letters at X, in order, P23837 (parent)
# chain: MKKLLRLFFPLSLRVRFLLATAAVVLVLSLAYGMVALIGYSVSFDKTTFRLLRGESNLFYTLAKWENNKLHVELPENIDKQSPTMTLIYDENGQLLWAQRDVPWLMKMIQPDWLKSNGFHEIEADVNDTSLLLSGDHSIQQQLQEVREDDDDAEMTHSVAVNVYPATSRMPKLTIVVVDTIPVELKSSYMVWSWFIYVLSANLLLVIPLLWVAAWWSLRPIEALAKEVRELEEHNRELLNPATTRELTSLVRNLNRLLKSERERYDKYRTTLTDLTHSLKTPLXXLQXXLRSLRSEKMSVSDAEPVMLEQISRISQQIGYYLHRASMRGGTLLSRELHPVAPLLDNLTSALNKVYQRKGVNISLDISPEISFVGEQNDFVEVMGNVLDNACKYCLEFVEISARQTDEHLYIVVEDDGPGIPLSKREVIFDRGQRVDTLRPGQGVGLAVAREITEQYEGKIVAGESMLGGARMEVIFGRQHSAPKDE
# Variants of: B1
# Experiment: enrichment ratio after two sorts for PhoP signalling (ratio (wild type AVST 3.29)); higher = more functional
# Details: with PhoP (E. coli)
row,Variant,enrichment ratio
1,KMTL,≤ 0.25
2,GHMS,≤ 0.25
3,KYTH,≤ 0.25
4,FDAG,≤ 0.25
5,VKIS,≤ 0.25
6,MYLL,≤ 0.25
7,IWPK,≤ 0.25
8,FQGS,≤ 0.25
9,LKIE,1.65
10,RNFQ,≤ 0.25
11,LFPL,≤ 0.25
12,MYHH,≤ 0.25
13,GNPD,≤ 0.25
14,MTEM,≤ 0.25
15,TYLY,≤ 0.25
16,CFFP,≤ 0.25
17,STTK,≤ 0.25
18,QGLP,≤ 0.25
19,SHEN,≤ 0.25
20,LQVL,≤ 0.25
21,QLCY,≤ 0.25
22,LVTS,≤ 0.25
23,HHNQ,≤ 0.25
24,VFQE,≤ 0.25
25,KVWL,≤ 0.25
26,LYHW,≤ 0.25

row,Variant,enrichment ratio
1,AFNS,≤ 0.25
2,TNIQ,≤ 0.25
3,VYSN,≤ 0.25
4,RIVG,≤ 0.25
5,KQLD,≤ 0.25
6,MEYA,4.82
7,YRSM,≤ 0.25
8,FCHK,≤ 0.25
9,PNCW,≤ 0.25
10,FVWH,≤ 0.25
11,NCYS,≤ 0.25
12,PKND,≤ 0.25
13,YHVG,≤ 0.25
14,RPRL,≤ 0.25
15,HWSH,≤ 0.25
16,LVQW,≤ 0.25
17,WQSR,≤ 0.25
18,SNGV,5.15
19,AEFA,0.58
20,EVDD,≤ 0.25
21,RWAM,≤ 0.25
22,SYFD,≤ 0.25
23,KNTM,≤ 0.25
24,DIHP,≤ 0.25
25,EIDP,≤ 0.25
26,HEDD,≤ 0.25

row,Variant,enrichment ratio
1,SFWP,≤ 0.25
2,LCVP,≤ 0.25
3,QKVE,≤ 0.25
4,TGYT,10.1
5,PDQN,≤ 0.25
6,DGPI,≤ 0.25
7,LICT,≤ 0.25
8,FYNQ,≤ 0.25
9,GARW,≤ 0.25
10,AVGQ,≤ 0.25
11,KMIM,≤ 0.25
12,PGWC,≤ 0.25
13,DYHK,≤ 0.25
14,FVGG,≤ 0.25
15,HCRI,≤ 0.25
16,NNAR,≤ 0.25
17,VSEC,≤ 0.25
18,YTIC,≤ 0.25
19,FIGV,≤ 0.25
20,PRAL,≤ 0.25
21,LAMM,14.3
22,QLDV,≤ 0.25
23,RFDG,≤ 0.25
24,SAYK,≤ 0.25
25,SAAL,12.8
26,WETQ,≤ 0.25

row,Variant,enrichment ratio
1,FERQ,≤ 0.25
2,GFLG,6.69
3,AAMW,2.71
4,QLIH,≤ 0.25
5,FYFV,≤ 0.25
6,MHFV,≤ 0.25
7,TSPW,≤ 0.25
8,YFYC,≤ 0.25
9,MKNG,≤ 0.25
10,HGFY,≤ 0.25
11,KVSP,≤ 0.25
12,KHFR,≤ 0.25
13,PWIN,≤ 0.25
14,GSWI,≤ 0.25
15,RFAI,≤ 0.25
16,MECL,10.6
17,YIDI,≤ 0.25
18,ADPA,≤ 0.25
19,PYYI,≤ 0.25
20,RMRC,≤ 0.25
21,QCLS,≤ 0.25
22,SMMY,2.28
23,MLGD,≤ 0.25
24,PGFK,≤ 0.25
25,VNAS,0.424
26,PKFW,≤ 0.25

row,Variant,enrichment ratio
1,MEGA,≤ 0.25
2,RFDE,≤ 0.25
3,SVWW,≤ 0.25
4,HDLP,≤ 0.25
5,SMMI,5.18
6,FPNR,≤ 0.25
7,WEEM,≤ 0.25
8,QFRC,≤ 0.25
9,FTDD,≤ 0.25
10,DLIT,≤ 0.25
11,IMNW,≤ 0.25
12,EFWC,≤ 0.25
13,DYEQ,≤ 0.25
14,DEHV,≤ 0.25
15,PLIG,≤ 0.25
16,KCTT,≤ 0.25
17,PDGW,≤ 0.25
18,EPCE,≤ 0.25
19,WQAQ,≤ 0.25
20,NFMW,≤ 0.25
21,KCWP,≤ 0.25
22,RMNE,≤ 0.25
23,GPAV,≤ 0.25
24,RIHR,≤ 0.25
25,FQTC,≤ 0.25
26,IYHW,≤ 0.25

row,Variant,enrichment ratio
1,NEIV,≤ 0.25
2,FWGK,≤ 0.25
3,SNEP,≤ 0.25
4,NEAQ,≤ 0.25
5,IKDW,≤ 0.25
6,DKDS,≤ 0.25
7,TIYI,4.29
8,HAFI,≤ 0.25
9,IVRS,≤ 0.25
10,GGYL,≤ 0.25
11,AHWD,≤ 0.25
12,LAVV,≤ 0.25
13,VCLA,0.76
14,HQIK,≤ 0.25
15,PYSC,≤ 0.25
16,ISVW,≤ 0.25
17,FKDY,≤ 0.25
18,TGGL,3.52
19,FKGY,≤ 0.25
20,EMIA,≤ 0.25
21,KQRH,≤ 0.25
22,DNMW,≤ 0.25
23,NQGA,≤ 0.25

# — a collection of fitness landscapes (doi:10.1126/science.1257360)
